Reference: paper PMC5892938
The other results are listed elsewhere or left out. Construct or isoform of the protein are uncertain.

Target: GST-SBP-ILF3 (Homo sapiens) (UniProt Q12906)
Test: targeted RNA Bind-n-Seq
Conditions: RBNS binding buffer: 25 mM Tris pH 7.5, 150 mM KCl, 3 mM MgCl2, 0.1% Tween, 0.5 mg/mL BSA, 1 mM DTT; 27 nM protein, 750 pM RNA pool; temperature not stated; high values mean tight binding; sequences stand for … in GGGUAAAAGCGAGGUGAA…CGGGACAAGUAUUAUGGG

Row | Sequence | binding signal (log2 fold change)
1 | GUGUGUUGUGUUGGCUUCUAACACAACGCA [gtspaired] | -0.201
2 | UUUUUUUUUUGAGAUGGAGUCCGUCUCCUG [tttttgagapaired] | 0.561
3 | GUUGUGUGUGUUGGAGUCUAACACACACGA [gtspaired] | -0.536
4 | GUGUGGUGUGUUGGCGCCUAACACACCAUA [gtspaired] | -0.283
5 | UUUUUUUUUUGAGAGGGACCCCCUCUCCUA [tttttgagapaired] | 0.493
6 | GGUGGUGGUGUUGGCGUCUAACACCGCUAC [gtspaired] | -0.37
7 | UUUUUUUUUUGAGAUCGGGGCGAUCUCCGG [tttttgagapaired] | 0.236
8 | UUUUUUUUUUGAGACGGAAACCGUUUUCUA [tttttgagapaired] | 0.239
9 | GUUGGUGGUGUUGGACCCUAACACCACCAG [gtspaired] | -0.461
10 | GGUGUGUGUGUUGGUCCCUAACACAUACAC [gtspaired] | -0.628
11 | UUUUUUUUUUGAGACGGCUUCCGUCUCCAG [tttttgagapaired] | 0.592
12 | UUUUUUUUUUGAGACUGACACAGUCUUCUA [tttttgagapaired] | -0.129
13 | UUUUUUUUUUGAGAUGGGCUCCAUCUUCUA [tttttgagapaired] | 0.378
14 | UUUUUUUUUUGAGAUGGGAGCUAUCUCCUA [tttttgagapaired] | 0.349
15 | UUUUUUUUUUGAGACUGAAACAGUUUCCGG [tttttgagapaired] | 0.365
16 | UUUUUUUUUUGAGACUGGAACAGUUUUCUA [tttttgagapaired] | 0.0124
17 | UUUUUUUUUUGAGAUCGAAACGAUUUCCAG [tttttgagapaired] | 0.136
18 | GGUGUUGGUGUUGGCUUCUAACACCGACGC [gtspaired] | -0.39
19 | GUGUGUGGUGUUGGAGUCUAACACCAUACG [gtspaired] | -0.474
20 | UUUUUUUUUUGAGACGGAGGCCGUUUCCAG [tttttgagapaired] | 0.687
21 | UUUUUUUUUUGAGAUGGGAACCAUCUUCUA [tttttgagapaired] | 0.0161
22 | UUUUUUUUUUGAGAUGGAGGCCAUCUCCGG [tttttgagapaired] | 0.373

Row | Sequence | binding signal (log2 fold change)
23 | UUUUUUUUUUGAGACCGUUUCGGUCUCCUG [tttttgagapaired] | 0.4
24 | GUGUGUUGUGUUGGCGUCUAACACAGCACG [gtspaired] | -0.721
25 | UUUUUUUUUUGAGAGGGUGCCCCUCUUCUG [tttttgagapaired] | 0.409
26 | UUUUUUUUUUGAGAGGGCUUCCCUCUUCUG [tttttgagapaired] | 0.496
27 | GUGGUUGGUGUUGGUGCCUAACACCAGCCG [gtspaired] | -0.352
28 | UUCUCUCUUCCUCCAUAGGAGGAGGAGGGA [ctspaired] | -0.374
29 | UUUUUUUUUUGAGAUGGGAGCUAUCUCCGG [tttttgagapaired] | 0.426
30 | GUGUGGUGUGUUGGAAUCUAACACAUCGCG [gtspaired] | -0.747
31 | UUUUUUUUUUGAGACUGAAUCAGUCUUCUG [tttttgagapaired] | 0.186
32 | GUGUUGUGUGUUGGUGCCUAACACACAGCA [gtspaired] | -0.576
33 | UUUUUUUUUUGAGACUGGGGCAGUUUUCUA [tttttgagapaired] | 0.754
34 | GUGGUUGGUGUUGGCCCCUAACACCGACCG [gtspaired] | -0.677
35 | UUUUUUUUUUGAGAUCGUAUCGAUCUCCGG [tttttgagapaired] | 0.165
36 | GUGGUUGGUGUUGGUCCCUAACACCGACCG [gtspaired] | -0.454
37 | UUUUUUUUUUGAGAACGGGGCGUUCUCCUA [tttttgagapaired] | 0.308
38 | UUUUUUUUUUGAGACUGGAACAGUCUCCUG [tttttgagapaired] | 0.223
39 | UUUUUUUUUUGAGAUGGCGACCAUCUCCUA [tttttgagapaired] | 0.276
40 | UUUUUUUUUUGAGACGGGAACCGUUUCCGG [tttttgagapaired] | 0.639
41 | UUUUUUUUUUGAGACUGCUUCAGUCUCCUA [tttttgagapaired] | -0.00297
42 | UUUUUUUUUUGAGACCGAACCGGUCUCCUG [tttttgagapaired] | 0.198
43 | UUUUUUUUUUGAGACGGGCUCCGUCUCCAG [tttttgagapaired] | 0.494
44 | UUUUUUUUUUGAGAUGGCCACCAUCUCCUG [tttttgagapaired] | 0.757

Row | Sequence | binding signal (log2 fold change)
45 | GUGUGUGGUGUUGGACUCUAACACCGCGCA [gtspaired] | -0.14
46 | GGUGUGUGUGUUGGACUCUAACACACGCGC [gtspaired] | -1.11
47 | UUUUUUUUUUGAGACCGCAGCGGUCUCCAG [tttttgagapaired] | 0.746
48 | GUGUGUGGUGUUGGCAUCUAACACCACGCG [gtspaired] | -0.58
49 | UUCUCUCUUCCUCCGGUGGAGGAGGGGAGA [ctspaired] | -0.184
50 | GUGUGUGGUGUUGGACUCUAACACCGCACG [gtspaired] | -0.603
51 | UUUUUUUUUUGAGACCGAAACGGUUUCCUG [tttttgagapaired] | 0.537
52 | UUUUUUUUUUGAGAGCGGGGCGUUCUUCUA [tttttgagapaired] | 0.779
53 | GUGUGUUGUGUUGGCGCCUAACACAACGCG [gtspaired] | -0.365
54 | GUGGUUGGUGUUGGCUCCUAACACCGACUA [gtspaired] | -0.619
55 | UUUUUUUUUUGAGAGCGAACCGUUCUCCGG [tttttgagapaired] | 0.275
56 | UUUUUUUUUUGAGACCGGACCGGUCUCCUA [tttttgagapaired] | 0.362
57 | UUUUUUUUUUGAGAUGGGCACCAUCUCCUA [tttttgagapaired] | 0.499
58 | GUGGUGUGUGUUGGCACCUAACACAUACUA [gtspaired] | -0.582
59 | UUUUUUUUUUGAGACGGGGUCUGUCUCCGG [tttttgagapaired] | 0.704
60 | UUUUUUUUUUGAGAGGGGACCCCUCUCCUG [tttttgagapaired] | 0.996
61 | UUUUUUUUUUGAGAUCGAGACGGUCUCCGG [tttttgagapaired] | 0.4
62 | UUUUUUUUUUGAGAUGGAGGCCAUCUUCUA [tttttgagapaired] | 0.314
63 | UUUUUUUUUUGAGACCGAAUCGGUCUUCUA [tttttgagapaired] | 0.115
64 | UUUUUUUUUUGAGAGGGACCCCCUCUUCUA [tttttgagapaired] | 0.306
65 | GUGUGGUGUGUUGGCUUCUAACACAUCAUA [gtspaired] | -0.721
66 | UUUUUUUUUUGAGACGGGAACCGUCUUCUG [tttttgagapaired] | 0.197
